Results taken from the supplement of paper PMC11417369.
This is one part of the list.

Each sequence was assayed on PfSIP2 AP2 domain 1 (GST-tagged) (assay: gcPBM binding intensity (ln(normalized median fluorescence intensity)); higher = stronger DNA binding).
In short: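 In this array assay, P. falciparum DNA-binding domains with a GST tag, expressed in E. coli, were applied for 1 h to primer-extended double-stranded 36-bp intergenic genomic probes and negative controls on an Agilent 4 × 180k array. Bound protein was visualised with Alexa488 anti-GST antibody at 488 nm. Binding intensity is the highest Masliner-normalised natural-log median intensity across replicate spots of either probe orientation.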

In order of rising “gcPBM binding intensity (ln)” value:
1. AAATAATATATTCTATATAATAAATTATAAATATAA [GTGCAC_negctrl_site558]  6.58
2. TAATTTAGATATATAAAGAATTAAAGTTAACATTCT [CACACA_negctrl_site726]  6.71
3. ATAAATAATATAAATACACACTAAAAAAAATATATA [CACACA_site4456]  6.78
4. TAAAAAAATAAATATACACACATATATAAATATGTA [CACACA_site6641]  6.78
5. AAAAATAAATAAGACACACACAAAAAAAAAAAAAAA [CACACA_site1432]  6.82
6. TAAAATTTATAAACTACACACATATATATAGTAATA [CACACA_site3728]  6.82
7. TATCTTATGTCTGAAAGTACAAATTTTTTTCTACTT [XGTACX_site2208]  6.82
8. AATGTAACAACTTTTTGTACTTAAGAAATAATAAAT [XGTACX_site3310]  6.84
9. TTTTTCAGATCCTATATAGTATCATATAAATTCCAT [CACACA_negctrl_site56]  6.87
10. TATATTATTAATTAAGCACACATTATTTTTATAATA [CACACA_site3982]  6.89
11. CAAAGATATATAAACACACAAATATAACATATATAC [CACACA_site7395]  6.91
12. TTCGATGAATATACAAGTACATATCCTTACGAACTG [XGTACX_site1650]  6.93
13. TATATTATTATATATTGTACTTTTTATATTTGCATT [XGTACX_site2978]  6.95
14. ATATAATCAGCTTCTCTTTTATGCTAAAAAAAAAAA [CACACA_negctrl_site1310]  6.97
15. TTTATATATTTCATAATACACACGAAAAAAAAAAAA [CACACA_site2970]  6.98
16. TTAATTATATCAGGACGTACTAATATAAATATATAT [XGTACX_site8909]  6.99
17. TATATATGCATTAAATGATGTTCCTGTTTTTTAAAA [CACACA_negctrl_site1378]  7.02
18. AATAAATAAATATATACACACATATATGTCTACATA [CACACA_site3158]  7.02
19. ATACAACTAATAAGTAGTACAATATACATATATTAT [XGTACX_site7086]  7.02
20. TAACATAATATAGACACACACATGTACATATGCCAA [CACACA_site1842]  7.04
21. AAGATCGCATGAAATGAACACACATAAAAAAAATAT [CACACA_site9353]  7.05
22. TGTCATCATCTTAAATGTACAAAAAGGAAATATAAA [XGTACX_site1529]  7.06
23. ATATGACTGTTCATTTGTACGTATAATTATATACGT [XGTACX_site3372]  7.09
24. GGGATATATTATTATACACACATATATAAAAGCTTT [CACACA_site2445]  7.09
25. AAATGAGATATAAAATGTACATATTGTAAGTAAACA [XGTACX_site1237]  7.09
26. TATGAATATCTATACACACACATATATATACTCACT [CACACA_site1597]  7.11
27. ATACGAAGTACGTACACACACTTATATGTTACTAAA [CACACA_site7812]  7.14
28. TTTCTTATATAAGTGTACTAAAATATATATATGCAA [GTGCAC_negctrl_site546]  7.24
29. TTGCATTACGAACATACACACAGAATAACTGAAAAC [CACACA_site3025]  7.25
30. ATTTTTTTTTTAAAATGTACATGAGAAATTGTATAT [XGTACX_site425]  7.26
31. TTAAGAAAAAAAAAAAGTACACACATATAATATATA [XGTACX_site6268]  7.27
32. AAAAAAAATGAAAGGTGTACACATACAAACATAGAA [XGTACX_site3517]  7.31
33. TAAAAAATTATATTCACACACATACCCATATATATA [CACACA_site4458]  7.4
34. ATTATCTATCGTTTTTGTACTTACACCTTAATACAA [XGTACX_site7337]  7.4
35. TTTATATCATTTCTTAAAAAAAAGGAGGTAATAGAC [TGCATGCA_negctrl_site555]  8.44
36. ATATATATATAATAAAGTACAAATTCTAAATGATAT [XGTACX_site570]  8.92
37. ACTACGAATGGTAGAGTGCAGTCTGGAGAAAAGTAC [GTGCAC_site9681]  9.11
38. TTTTTTTTTTTTTTTTATTTATATATATATATATAT [CACACA_negctrl_site582]  9.19
39. CTTTTTTTTTTTTTTGCGCACTGTTTAAAGGGAAAT [GTGCAC_site9815]  9.19
40. GTGCAAAATATTTTTACACACAAATTTTTACAACAG [CACACA_site3357]  9.32
41. TATGTATATTTTTTTGTGCACATATATATATATATA  9.54
42. ATATATATATATATATATATATATATATATTATATA [XGTACX_negctrl_site48]  9.63
43. TTTTTATTAAGACATGCATGGAAACGCACTATTTTA [TGCATGCA_site999]  9.74
44. AAATATTTTTAGAGTGCATGTAATAAAAATATAATG [TGCATGCA_site19]  10.1
